Experimental data: ChEMBL document CHEMBL1157539, “Thousands of chemical starting points for antimalarial lead identification” (Nature, 2010)
Over roughly 13,000 compounds, “IFI” has its median near 4; the highest 2% begin near 17. Some of the results follow.

experiment: GSK_TCMDC: Inhibition Frequency Index (IFI). The number of non-kinase HTS assays where a compound showed > 50 % inhibition, expressed as a percentage of the number of such assays in which the compound was tested (-0 is zero); format: functional

| Compound | IFI |
| --- | --- |
| CC(C)[C@H](NC(=O)c1c(F)cccc1F)C(=O)Nc1ccc(Cc2nc3ccccc3s2)cc1 | 1.96% |
| CS(=O)(=O)Nc1ccc2c(C3CCN(CCC4CCN(C(=O)/C=C/c5ccc(Cl)c(Cl)c5)CC4)CC3)c[nH]c2c1 | 6.47% |
| Cc1cccc(NC(c2cccs2)c2c(NC(=O)c3ccccc3)sc(C)c2C)n1 (stereo unspecified) | 4.65% |
| O=[N+]([O-])c1cccc(NC(=S)N2CCCN(Cc3ccc(C(F)(F)F)cc3)CC2)c1 | 2.96% |
| Cn1nccc1C(=O)NCCNCc1ccc(-c2cccc(-c3nc4cc(F)ccc4[nH]3)c2)cc1 | 5.83% |
| O=C(NCCCCN1CCC(c2ccc(C(F)(F)F)cc2C(F)(F)F)CC1)c1ccc(NC(=O)c2ccc(Cl)cc2)cc1 | 1.5% |
| CCCCCN1CCCN(Cc2cccc(NC(=O)c3ccc(-c4ccccc4)cc3)c2)CC1 | 6.16% |
| CN1CCN(S(=O)(=O)c2cccc(Nc3nccc(N(C)c4ccc5c(c4)nc(NC(=O)c4cccs4)n5C)n3)c2)CC1 | 2.26% |
| CCn1c(CN2CCC(C)CC2)nc2cc(NC(=O)c3cccs3)ccc21 | 4.17% |
| CNS(=O)(=O)Cc1ccc(Nc2nccc(Nc3cccc4c3cnn4C(=O)Nc3ccccc3)n2)cc1 | 14.3% |
| O=C(Nc1ccc2c(c1)OCO2)c1cc(-c2cccnc2)cnc1NCc1ccc2c(c1)OCO2 | 0% |
| Cc1cc(=NN=Cc2ccccc2Cl)c2cc(F)ccc2[nH]1 | -0% |
| Cc1cc2c(cc1C(F)(F)F)N(C(=O)Nc1ccc(OCCN(C)C)c(C(F)(F)F)c1)CC2 | 7.35% |
| CCOc1ccc(Nc2cc(C)nc(Nc3ccc(OCC)cc3)n2)cc1 | 0.71% |
| Brc1ccc(Nc2nc(NCc3ccccc3)c3ccccc3n2)cc1 | 6.57% |
| NS(=O)(=O)c1ccc(CNC(=O)c2cnc3c(O)cccc3c2Nc2cccc(NC(=O)c3ccc(Cl)c(Cl)c3)c2)cc1 | 9.3% |
| O=C(Nc1cccc(-c2ccc(-c3nc4cc(C(F)(F)F)ccc4[nH]3)cc2)c1)c1ccoc1 | 6.19% |
| CCc1cn2c3c(cc(C(=O)N[C@@H](Cc4ccccc4)[C@H](O)CNCc4ccccc4)cc13)N(C)S(=O)(=O)CC2 | 2.17% |
| Cc1[nH]c(C)c(-c2ccc(Oc3cccc(C(F)(F)F)c3)cc2)c(=O)c1Br | 4.58% |

| Compound | IFI |
| --- | --- |
| Cc1cc(-c2cccc(CNCCc3ccc(Cl)cc3)c2)cnc1N | 2.26% |
| OC(CNCCCCCCNCC(O)c1ccc(Cl)c(Cl)c1)c1ccc(Cl)c(Cl)c1 (stereo unspecified) | 11.7% |
| CCC(CC)CN1C(=O)C(c2ccccc2)(c2ccccc2)N=C1N | 3.7% |
| COc1ccc(OC)c(Cc2cnc3nc(N)[nH]c(=O)c3c2C)c1 | 1.35% |
| CCCc1cc(Cc2cnc(N)nc2N)cc(OCCCCCC(=O)O)c1OC | 0.7% |
| O=S(=O)(NCCN1CCCC1)c1cccc(-c2ccc(CNCc3ccc(F)cc3)cc2)c1 | 12% |
| Cc1nc(-c2ccc(-c3ccc(NC(=O)Nc4ccc(I)c(OCCN(C)C)c4)cc3)c(C)c2)no1 | 7.3% |
| C=C[C@H]1CN(CCCCCCC)CC[C@H]1CC(O)Cc1ccnc2cc(O)c(OC)cc12 (stereo partly specified) | 2.21% |
| CCCCCC(C)C(C)c1cc(OC(N)=O)c2c(c1)OC(C)(C)C=C2c1ccncc1 (stereo unspecified) | 0% |
| CCCc1cc(C(=O)N[C@@H](Cc2ccccc2)[C@H](O)CNC(C)(C)c2cccc(OC)c2)c(F)c(N2CCCC2=O)c1 | 3.65% |
| C#CC(C)(CO)N1CCCC1 (stereo unspecified) | 0.72% |
| CN(C)c1ccc(C=C2SC(=N)N(c3nccs3)C2=O)cc1 | 10.1% |
| CCC(=O)NC(c1ccco1)c1cc(Cl)c2cccnc2c1O (stereo unspecified) | 4.35% |
| O=C(Nc1ccc(Cl)cc1)Nc1ccc2c(c1)N1CCN=C1S2 | 2.82% |
| CC1CN(Cc2cccc(F)c2)CCN1c1ccc(NC(=O)c2cccs2)cc1 (stereo unspecified) | 0% |
| COc1cc2cc(Cc3cnc(N)nc3N)ccc2c(OC)c1OC | 1.47% |
| CCC(=O)N(c1ccccc1)C1CCN(CCCC(NC(=O)Nc2cc(C(F)(F)F)cc(C(F)(F)F)c2)c2ccc(Cl)c(Cl)c2)CC1 (stereo unspecified) | 6.38% |
| NS(=O)(=O)c1cccc(Nc2nccc(-c3c(-c4cccc(NC(=O)c5c(F)cccc5F)c4)nn4ccccc34)n2)c1 | 7.86% |
| CCN(CCCN1CCCCC1)c1cc(C)nc(Nc2cccc(OC(F)(F)F)c2)n1 | 7.59% |

| Compound | IFI |
| --- | --- |
| CCN1CCC(N(Cc2ccc(-c3ccc(C(F)(F)F)s3)cc2)C(=O)Cn2c(CCc3cccc(F)c3F)nc(=O)c3ccccc32)CC1 | 8.39% |
| O=C(Nc1ccc(S(=O)(=O)N2CCOCC2)cc1)c1cc(-c2cc(Cl)ccc2O)n[nH]1 | 10.6% |
| Nc1ccc(-c2ccc(NC(=O)Nc3cc(C(F)(F)F)ccc3F)cc2)cn1 | 1.32% |
| Cc1cc(NCCc2ccccc2)nc(NC(=N)Nc2cccc([N+](=O)[O-])c2)n1 | 6.21% |
| CNCCNCc1cccc(-c2cccc(-c3nc4cc(F)ccc4[nH]3)c2)c1 | 7% |
| Cc1cc(=NN=Cc2ccccc2Cl)c2ccc(F)cc2[nH]1 | 0% |
| Cc1cc(C)c(C)c(S(=O)(=O)N2CCCCC(c3ccc(F)c(F)c3)=N2)c1C | 0.78% |
| Cc1cccc2nc(-c3ccc(-c4ccc(CNCc5ccc(CN)cc5)cc4)cc3)[nH]c12 | 11.8% |
| COc1ccc2nccc([C@@H](O)CN3CCC(NCCNc4cccc(F)c4)CC3)c2c1 | 2.9% |
| CC(CN1CCN(C)CC1)C(=O)Nc1ccc(-c2ccc(-c3nc4ccccc4[nH]3)s2)cc1 (stereo unspecified) | 1.85% |
| CC(C)(C)CN1C(=O)C(c2ccccc2)(c2ccccc2)N=C1N | 5.77% |
| O=C(NCCCCN1CCC(c2ccc3c(c2OCCN2CCCC2=O)CCCC3)CC1)c1ccc(-c2ccc(C(F)(F)F)cc2)cc1 | 9.65% |
| Cc1cc2nc(-c3ccc(C(=O)NC4CCN(Cc5ccccc5)CC4)cc3)[nH]c2cc1C | 0% |
| O=C(NC1CCC(N2CCCC(OCc3ccccc3)C2)CC1)c1cc2ccccc2[nH]1 (stereo unspecified) | 3.08% |
| N#Cc1ccc2[nH]c(-c3cc(-c4cccc(F)c4)cnc3N)nc2c1 | 3.7% |
| O=S(=O)(NCCN1CCCC1)c1ccc(-c2cccc(CNCCc3cccs3)c2)s1 | 9.73% |
| CS(=O)(=O)c1cccc(-c2cnc3[nH]cc(-c4ccc(CCC(=O)O)cc4)c3c2)c1 | 4.39% |
| O=C(Cc1cccnc1)N(Cc1ccc(-c2ccc(CNCc3cccnc3)cn2)cc1)C1CCN(Cc2ccccc2)CC1 | 0.69% |
